Test results from paper PMC6919601, “Identification of Plasmodium dipeptidyl aminopeptidase allosteric inhibitors by high throughput screening” (PLoS ONE, 2019).
Out of some 110,000 compounds screened, about 230 (0.21%) showed an effect of 50% or more. The list shows a part of the results.

target: DPAP1 (Plasmodium falciparum, UniProt Q8IIJ9); assay: primary screen, percent inhibition; read by cleavage of a fluorogenic dipeptide substrate; higher = more effect of the substance; set-up: species or system P. falciparum D10 trophozoite lysates; single well
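Also: 30 min substrate incubation versus DMSO and 10 µM JCP410 controls.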

Sequence of DPAP1 (Q8IIJ9 whole entry, looked up): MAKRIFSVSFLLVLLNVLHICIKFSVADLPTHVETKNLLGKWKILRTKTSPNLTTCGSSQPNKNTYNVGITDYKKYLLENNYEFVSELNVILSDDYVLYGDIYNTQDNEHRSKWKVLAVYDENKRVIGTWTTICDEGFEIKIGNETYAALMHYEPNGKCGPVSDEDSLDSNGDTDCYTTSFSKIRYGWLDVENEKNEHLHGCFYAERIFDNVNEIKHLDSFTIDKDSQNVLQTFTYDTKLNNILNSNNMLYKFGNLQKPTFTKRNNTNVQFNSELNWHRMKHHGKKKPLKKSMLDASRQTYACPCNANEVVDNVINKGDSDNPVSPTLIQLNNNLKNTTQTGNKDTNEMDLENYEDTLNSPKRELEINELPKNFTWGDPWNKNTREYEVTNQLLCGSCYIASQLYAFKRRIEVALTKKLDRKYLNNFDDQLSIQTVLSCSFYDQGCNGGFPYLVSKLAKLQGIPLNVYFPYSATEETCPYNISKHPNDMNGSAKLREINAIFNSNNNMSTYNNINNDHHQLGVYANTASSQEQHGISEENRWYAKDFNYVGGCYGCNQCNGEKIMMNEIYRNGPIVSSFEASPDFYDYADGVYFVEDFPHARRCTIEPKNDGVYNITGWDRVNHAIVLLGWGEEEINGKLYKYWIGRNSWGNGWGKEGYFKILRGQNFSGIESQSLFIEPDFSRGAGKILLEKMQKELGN

SMILES | % Inhibition @ 10 uM
c1ccc(CCN2CCN(c3ccccc3)CC2)cc1 | -0.603%
CCOC(=O)c1[nH]c(C)c(C(=O)NC(C)c2ccccc2)c1C (stereo not drawn) | -3.44%
O=C(CCCn1c(=O)c2cccn2c2cccnc21)NCCCN1CCc2ccccc2C1 | 0.677%
O=S(=O)(c1ccc(-c2cc(C(F)(F)F)no2)s1)N(CCN1CCOCC1)Cc1ccco1 | -5.12%
O=C1CCCC2=C1C(c1cccc(Br)c1)C1=C(CCCC1=O)O2 | 16%
CCN(CC)CCNc1ccc2nnc(CCNC(=O)c3ccc(C)cc3)n2n1 | -5.88%
Cc1ccc(Cn2nc(C)c(NC(=O)COCc3cc(-c4cccs4)on3)c2C)cc1 | -7.94%
CCN(CC)c1nc(Cl)nc(N(C)C#N)n1 | -2.15%
Cc1ccc(C2C(C(=O)c3ccc(F)cc3)=C(O)C(=O)N2CCCN(C)C)cc1 (stereo not drawn) | 2.27%
COc1ccc(C2CC(c3ccccc3C)n3nnnc3N2)cc1 (stereo not drawn) | -1.62%
COc1cc(C2C(C#N)=C3N=C(N)c4c(sc5c4C4CCN5CC4)N3C3=C2C(=O)CCC3)ccc1O (stereo not drawn) | 5.13%
COc1ccc(CCNC(=O)c2cnn3ccccc23)c(OC)c1OC | -6.52%
CCOc1ccc(NC(=O)c2c(Cl)c(C)nn2C)cc1 | 0.121%
COc1ccccc1C1C(C#N)=C(N)Oc2c1sc1ccccc21 (stereo not drawn) | -3.9%
COC(=O)c1sc2nc3n(c(=O)c2c1C)N=C(c1ccc(Br)cc1)CS3 | 4.46%
CC(C)C(=O)Nc1ccc(NC(=O)Cc2ccc(Cl)cc2)cc1 | -0.231%
Cc1nnc(N2CCC(C(=O)NC(C)CCc3ccccc3)CC2)c2nn(-c3ccccc3)c(C)c12 (stereo not drawn) | 0.0274%
Fc1ccc(-c2nnc(-c3ccc4c(c3)OCO4)o2)cc1 | 2.41%
c1nc(NCCCN2CCOCC2)c2c3c(sc2n1)CCCC3 | 4.89%
COc1ccc(CCNC(=O)CN2CC(c3ccccc3)CC2=O)cc1OC (stereo not drawn) | 0.738%
COCCNC(=O)O[C@@H](CS(=O)(=O)Cc1ccccc1)C(=O)NCC#N | -5.42%
CC(C)NC(=O)C(=O)NCc1ccccc1Cl | 1.13%
Cc1cccc(OCC(=O)NC2CCCCCC2)c1 | 2%
CC1=NN(C(=O)c2ccc(COc3ccccc3Br)o2)C(O)(C(F)(F)F)C1 (stereo not drawn) | -3.71%
O=C(NC1CCCCCCC1)c1ccc2c(c1)ncn2C1CCCC1 | 6.74%
COc1ccc(CC2=C(O)C(=O)c3ccccc3C2=O)cc1 | -1.25%
Cc1oc(-c2cccc(Br)c2)nc1CN1CCC(C(=O)NC2CCCCC2C)CC1 (stereo not drawn) | 0.689%
